Our source for the binding signal values is paper PMC12136788.

Sequences and labels used below:
T1: UNK ZnF1-3 (human, UniProt Q9C0B0 31-174)
T1 sequence: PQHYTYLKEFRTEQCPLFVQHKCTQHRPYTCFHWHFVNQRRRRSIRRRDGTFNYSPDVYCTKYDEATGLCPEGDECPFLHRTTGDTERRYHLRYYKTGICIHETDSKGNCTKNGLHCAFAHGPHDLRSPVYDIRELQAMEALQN

B1: chr8:27591085:27591086:-_ENSG00000147419_ENST00000356537|hu_hu|FALSE|FALSE (ssRNA)
RNA: GGGAGUUCUACAGUCCGACGAUCUGGAUGUGAGCUUGCUCUGGCAGCAGCAGUGCUGUCCUUGUUUCUGAGCUGCCACCUAUUCACUGGAGUUAGGUGGGUCAAAGCUGAAAUUUAGCUUGGAAUUUAAGUUUCUAAUUUUAUCAACAGAGGAUUGAGCAUCA
B2: 72187318_72187438_6261_3pUTR_ENSG00000148730_ENST00000373218|human|control|control (ssRNA)
RNA: GGGAGUUCUACAGUCCGACGAUCCCAGGGCUGCAGGCAGAGAGCCAUAAGCAAAGAGAAUCCACAGACCCGCUGAACAGGGACUCAAGCCUUCUCCUAAAUCUAAGCUUUGCCAAAAGGUUAUCAACUUCCAGGACCAGCCUACAACAGAGGAUUGAGCAUCA
B3: chr3:58352644:58352645:+_ENSMUSG00000027810_ENSMUST00000029387|mus_hu|FALSE|FALSE (ssRNA)
RNA: GGGAGUUCUACAGUCCGACGAUCCUUGUGCAAGAUAGAGCCAGUAUAAUGCCAAAUUUUGUAUCCAUUAUUAACCCGUAACCUGGGAGCACAUGUAGCUGUUAAAAUAUGCUCACCAUCCGGGCACCAAGCAAAAUAUGUAGACAACAGAGGAUUGAGCAUCA
B4: 98756215_98787438_173_CDS_ENSMUSG00000028556_ENSMUST00000030286|mouse|control|control (ssRNA)
RNA: GGGAGUUCUACAGUCCGACGAUCGUGGGAUAUAUUGCCAACUAUGUUGAGGUUUUUGAGCAGCUGGGGGGAACCACUGUAUUGUCCGGAGAUCUGCUUUCUAACUUCAGCAGCAACAGUUCUGCUGAUCUUCUGAGCGAAGGCCAACAGAGGAUUGAGCAUCA
B5: chr17:56552419:56552420:-_ENSMUSG00000013236_ENSMUST00000086828|mus_mus|mus_mus_mus_hu_False|1_8 (ssRNA)
RNA: GGGAGUUCUACAGUCCGACGAUCAAAAAAUACACUAUUUAAAAAAAAUGAAAUGUCACGGGAUACAGUUACACUGAGAGUUUUAAAAGAAAGCUGGAUUCUGGUCCCAGCCCAGUGUCCCCAGGCUGAGUGCGGAAGCAGAGGCAACAGAGGAUUGAGCAUCA
B6: chr7:7679991:7679992:-_ENSG00000106399_ENST00000396682|hu_hu|hu_hu_hu_mus_False|38_68 (ssRNA)
RNA: GGGAGUUCUACAGUCCGACGAUCUGGGAUGAAUCUUUUCCAGCUUCCCCACGAAGCACACGGGCCGGUCGAUGAAUUGUGGUAACAUGCUGGCGUUGAUGCGCGACUUGGGGAGCUGCAUUAUGUCCUCCAUGAUUCUGCCGCCAACAGAGGAUUGAGCAUCA
B7: chr12:493273:493274:-_ENSG00000073614_ENST00000399788|hu_mus|hu_hu_hu_mus_False|28_38 (ssRNA)
RNA: GGGAGUUCUACAGUCCGACGAUCUUUUCUCUCCACCACAGGGAUCUUCAAUGUAGAUCCUUGAAGUUCCCAAAAUUUUGCCAGUUGAUCCAAGAAGUCCAAUCUCACUCUGGUCAUUGCCUCAAGUUCAUUCAGGCGCUGGACCAACAGAGGAUUGAGCAUCA
B8: 57237035_57239225_1364_3pUTR_ENSMUSG00000019877_ENSMUST00000020027|mouse|control|control (ssRNA)
RNA: GGGAGUUCUACAGUCCGACGAUCCUGGAAGAGAUUUUCACCCAGACUGCUGUCCACUGACUUUUCAUCUCACGAGAAGGCUCAUACCUGUACCAAUUGGUGAGGGUCAUCAUGAUGUAAAGUGAAGCCAAGAAGAGCAUGAAGCAACAGAGGAUUGAGCAUCA
B9: chr8:117878989:117878990:-_ENSG00000164754_ENST00000297338|hu_hu|hu_hu_hu_mus_True|1_58 (ssRNA)
RNA: GGGAGUUCUACAGUCCGACGAUCCCAGAGGCCCUCGUUUACUGAGGACAAAAUGUGCGUAGAACAUUUUUCUUAUUGGCUAUGAAAUAAGAAGAAACCUGGAUCUCGGCGGGGAGCCGGGAGGGGUGGGUGGCCCGGGGGAGGCAACAGAGGAUUGAGCAUCA
B10: chr6:53156713:53156714:-_ENSG00000012660_ENST00000304434|hu_hu|FALSE|FALSE (ssRNA)
RNA: GGGAGUUCUACAGUCCGACGAUCGACAGAGCAGAUAAAUGUGGGUAUAUAAUUGUCCAGAAGAAACCAUCCUUUUACUCUAGUAUCUCGAGGGCCUAGCAAUGCCUUGAAAUAGGUACUAAGUGAUGCAUCAAAAUGUUCCAUCAACAGAGGAUUGAGCAUCA
B11: chr1:46159212:46159213:+_ENSG00000159596_ENST00000372025|hu_mus|hu_hu_hu_mus_True|48_68 (ssRNA)
RNA: GGGAGUUCUACAGUCCGACGAUCUCUGAUCCCUCCCAAGAAAGCUAGGAAACCGGCUCCAUAAGCCAUCUGAGUAAAAGCUAGGACGGGAAUAUAAGACUUUGUUAUUACCAUGAGAAGUGGGGGAGCAGUAAAGGGGAUUAACAACAGAGGAUUGAGCAUCA
B12: chr18:35833404:35833405:-_ENSMUSG00000024350_ENSMUST00000025208|mus_hu|FALSE|FALSE (ssRNA)
RNA: GGGAGUUCUACAGUCCGACGAUCACUACAAGACCUGGGUCAUCCUCUCUGGGCCAAUGUUCUCAUUCAUAGAACCAGGGAUAAUACAUCUACUUCAGAGUUGUGAGGAGGUUUAAGUAAGAAAAUAUGUGUGAGAGCCCCUGCCAACAGAGGAUUGAGCAUCA
B13: 138110163_138113869_380_3pUTR_ENSMUSG00000028138_ENSMUST00000005964|mouse|control|control (ssRNA)
RNA: GGGAGUUCUACAGUCCGACGAUCAGUGACCCUUAUUUUCUGGCAAAGGUUUGUUUUAGGAUUCAGACAAAACUUGCAUUCUCCACACUGUGGGAUGUAGAGUGGGAUGACAGUGUCACCUGCCUUCAGCUUCGUGACCCCUUCCAACAGAGGAUUGAGCAUCA
B14: chr4:148551591:148551592:-_ENSMUSG00000063077_ENSMUST00000060537|mus_hu|mus_mus_mus_hu_False|58_58 (ssRNA)
RNA: GGGAGUUCUACAGUCCGACGAUCACCUGACAAAAUUAAAUAUCCCUGUAAAUUAGACAAUAAGCAGCAGGCAACAAAGUCUAUGCUUUGGAAUAUGUGCCAGGAAAAGUCAUCUUGUUUUUAGAUCUCAAGAGACAGUUCACACAACAGAGGAUUGAGCAUCA

Some of the results follow.

This experiment has as its target T1, UNK ZnF1-3. Description: nsRBNS (natural sequence RNA bind-n-seq); RBNS binding buffer (assumed for nsRBNS): 25 mM Tris pH 7.5, 150 mM KCl, 3 mM MgCl2, 0.01% Triton X-100, 500 ug/ml BSA, 20 U/ml SUPERase-In, 4 C; UNK is unkempt and MSI1 is Musashi-1; names of the RNAs are library labels; protein concentration not given here; high values mean tight binding.
Molecule B1 yielded a binding signal of 0.555 enrichment R.

With B2, the binding signal was 1.22 enrichment R.

Take B3: the binding signal was determined as 1.6 enrichment R.

With B4, the binding signal was 0.684 enrichment R.

Molecule B5 registered a binding signal of 1.71 enrichment R.

With B6, the binding signal is 0.522 enrichment R.

B7 had a binding signal of 1.13 enrichment R.

B8 registered a binding signal of 1.42 enrichment R.

Turning to B9, the binding signal was determined as 1.58 enrichment R.

As to B10, the binding signal is 1.32 enrichment R.

B11 had a binding signal of 1.53 enrichment R.

B12: the binding signal worked out at 1.42 enrichment R.

The molecule B13 had a binding signal of 0.768 enrichment R.

With B14, the binding signal came to 1.22 enrichment R.
